# According to PubChem BioAssay AID504332 (National Center for Advancing Translational Sciences (NCATS), 2011):
# Screen size: about 350,000 compounds; about 31,000 (8.9%) were called active. The shares of active, inactive and inconclusive entries below differ from those in the screen. Calls follow the shape of the dose curve; as a rule, active = well fitted inhibition curve with a large enough effect; inconclusive = small, poorly fitted or top-dose-only effect; inactive = no such curve, though single readings can be large or run the other way. Potencies of inconclusive entries are doubtful fits and often do not repeat.
# Biological target: Histone-lysine N-methyltransferase EHMT2 (Homo sapiens) (UniProt Q96KQ7)
# Assay: qHTS Assay for Inhibitors of Histone Lysine Methyltransferase G9a; also: nearly all actives have a fitted effect of over 75% in size
# Conditions: G9a H3K9 monomethylation, AlphaScreen, 2 h; activity, negative = inhibition: at 59 µM (top of the series) unless noted
# Summary of the method: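 Using a bead-based AlphaScreen, monomethylated H3K9 product from 2 h room-temperature reactions (G9a 20 nM, peptide 500 nM, SAM 20 uM) was detected with 0.5 ug/mL rabbit anti-H3K9me1 antibody.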
# % is scaled to controls: 0 for no effect and ±100 for the full control effect; potency is read from the fitted curve at half-maximal effect; tags tell the direction and shape of the fitted curve.
# UniProt Q96KQ7, sequence (Q96KQ7 whole entry, looked up): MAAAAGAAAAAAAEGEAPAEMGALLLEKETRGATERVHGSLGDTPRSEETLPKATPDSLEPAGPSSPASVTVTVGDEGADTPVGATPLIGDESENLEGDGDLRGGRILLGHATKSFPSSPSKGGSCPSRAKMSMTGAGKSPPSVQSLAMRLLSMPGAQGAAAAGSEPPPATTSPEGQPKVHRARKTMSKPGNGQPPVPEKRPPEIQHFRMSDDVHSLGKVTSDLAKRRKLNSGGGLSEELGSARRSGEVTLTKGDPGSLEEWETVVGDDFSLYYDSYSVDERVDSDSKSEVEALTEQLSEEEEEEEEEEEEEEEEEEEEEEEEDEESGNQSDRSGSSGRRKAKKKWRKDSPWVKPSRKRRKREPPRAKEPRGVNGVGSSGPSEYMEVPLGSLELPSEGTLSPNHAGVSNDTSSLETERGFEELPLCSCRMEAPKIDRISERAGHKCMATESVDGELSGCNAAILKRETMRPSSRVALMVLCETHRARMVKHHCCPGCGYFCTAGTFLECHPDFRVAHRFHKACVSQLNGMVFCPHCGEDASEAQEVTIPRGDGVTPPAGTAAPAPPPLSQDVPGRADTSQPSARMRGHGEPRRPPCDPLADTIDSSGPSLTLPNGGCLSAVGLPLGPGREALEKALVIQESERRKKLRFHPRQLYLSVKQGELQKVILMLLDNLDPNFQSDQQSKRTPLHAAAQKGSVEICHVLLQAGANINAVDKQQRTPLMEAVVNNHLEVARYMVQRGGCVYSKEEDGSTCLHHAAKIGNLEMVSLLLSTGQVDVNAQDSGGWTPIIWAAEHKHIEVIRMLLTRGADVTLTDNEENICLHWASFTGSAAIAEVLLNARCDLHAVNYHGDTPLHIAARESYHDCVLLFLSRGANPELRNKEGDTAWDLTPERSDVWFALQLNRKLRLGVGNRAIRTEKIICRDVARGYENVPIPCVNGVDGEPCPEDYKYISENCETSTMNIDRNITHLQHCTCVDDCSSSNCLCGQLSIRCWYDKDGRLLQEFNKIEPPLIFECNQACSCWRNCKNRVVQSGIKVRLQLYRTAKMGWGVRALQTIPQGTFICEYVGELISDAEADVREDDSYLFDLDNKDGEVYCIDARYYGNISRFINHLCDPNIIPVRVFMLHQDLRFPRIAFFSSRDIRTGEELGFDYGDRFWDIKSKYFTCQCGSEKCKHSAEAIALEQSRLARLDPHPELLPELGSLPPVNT
Compound,Potency,"activity, negative = inhibition"
Cc1ccc(C(=O)OC/C(O)=C(\C#N)c2nc3ccccc3[nH]2)cc1S(=O)(=O)N1CCOCC1,inactive,–
O=C(NC(=S)NNS(=O)(=O)c1ccccc1)c1cccnc1,"inconclusive: 50.1 µM [inhibitor, partial curve]",–
COc1cccc(/C=N/NC(=O)CCc2c(C)n[nH]c2C)c1O,inactive,–
COCCN(C(=O)c1ccco1)C(C(=O)NC1CCCC1)c1cccs1 (configuration not stated),inactive,–
CCOC(=O)C(=O)C1=C(N2CCOCC2)/C(=C\c2ccc(F)cc2)CC1,"inconclusive: 39.8 µM [inhibitor, single point]",–
COc1ccc(C(=O)/C=C/c2ccccc2C(F)(F)F)cc1,inactive,–
COc1cc(/C=C2\SC(=O)N(CC(=O)Nc3ccccc3F)C2=O)cc(Cl)c1O,"inconclusive: 1.12 µM [inhibitor, partial curve, poor fit]",–
COC(=O)C1(C)NC(c2ccco2)C2C(=O)N(c3ccc(C)cc3)C(=O)C21 (configuration not stated),inactive,–
CCOc1ccccc1Nc1nc2ccccc2n2cnnc12,"inconclusive: 89.1 µM [inhibitor, single point]",–
COc1ccc(C2C(C(=O)Nc3cccc(C)n3)c3ccccc3C(=O)N2C)cc1 (configuration not stated),"inconclusive: 89.1 µM [inhibitor, single point]",–
O=C(CN1CCCc2ccccc21)Nc1cc(S(=O)(=O)N2CCCC2)ccc1Cl,active: 25.1 µM,–
O=C(CNC(=O)c1ccco1)Nc1ccc(F)cc1,–,inactive: 14.5% [at 12.7 µM]
O=C(c1ccccc1)N1CCN(C(=O)c2ccc([N+](=O)[O-])cc2)CC1,inactive,–
CC(=O)Nc1ccc(NC(=O)c2ccccc2CCc2ccccc2)cc1,inactive,–
COc1ccc(C(N)CCc2ccc(C)o2)cc1 (configuration not stated),active: 79.4 µM,–
CS(=O)(=O)N(CC(=O)Nc1ccc2c(c1)OCCO2)Cc1ccc(Cl)cc1,"inconclusive: 89.1 µM [inhibitor, partial curve, poor fit]",–
Cc1c(C)n(CCN(C)C)c2ncnc(NCc3ccccc3)c12,"inconclusive: 100 µM [inhibitor, single point]",–
COc1ccc(C(=O)C2CCCN(Cc3cccn3-c3ccccn3)C2)c(OC)c1 (configuration not stated),–,inconclusive: -62.9% [inhibitor] [at 12.7 µM]
O=C1c2ccccc2S(=O)(=O)c2cc(C(=O)N(c3ccccn3)c3ccccn3)ccc21,"inconclusive: 79.4 µM [inhibitor, single point]",–
Cc1ccc(C(=O)OCC(=O)c2c(N)n(C)c(=O)n(C)c2=O)cc1S(=O)(=O)N1CCCCC1,inactive,–
COc1ccc(NC(=O)/C(=C/c2ccc3c(c2)OCO3)NC(C)=O)cc1,inactive,–
COc1cc2nc(CN3CCN(C(c4ccccc4)c4ccccc4)CC3)[nH]c(=O)c2cc1OC,inactive,–
COc1ccc(C(=O)OCC(=O)Nc2ccc(OC)c(S(=O)(=O)N3CCCCC3)c2)cc1[N+](=O)[O-],"inconclusive: 79.4 µM [inhibitor, partial curve, poor fit]",–
COc1ccc(NC(=O)C2CCCN(C(=O)c3cnn(-c4ccc(F)cc4)c3-n3cccc3)C2)cc1 (configuration not stated),inactive,–

Compound,Potency,"activity, negative = inhibition"
Cc1ccc(C(C)n2cc(C(=O)NCCN3CCN(C)CC3)nn2)cc1 (configuration not stated),"inconclusive: 22.4 µM [inhibitor, single point]",–
CC(=O)Nc1ccc(C(=O)N/N=C/c2ccc(F)cc2)cc1,inactive,–
Cc1sc2ncnc(N3CCC(C(=O)Nc4cc(S(C)(=O)=O)ccc4Cl)CC3)c2c1C,inactive,–
COc1ccc(C)cc1NCc1nnc2n1CCCCC2,"inconclusive: 31.6 µM [inhibitor, partial curve, poor fit]",–
O=C(CCCCn1c(=O)c2ccccc2n(Cc2ccc(Cl)cc2)c1=O)NCc1ccccc1Cl,inactive,–
CN1CCN(C(c2ccccc2Cl)c2sc3nc(-c4ccco4)nn3c2O)CC1 (configuration not stated),inactive,–
CCCCn1c(N)c(N(CCOC)C(=O)c2cc(-c3ccccc3Cl)nc3ccccc23)c(=O)[nH]c1=O,inactive,–
Cc1cccc(C(C)C)c1NC(=O)COC(=O)CN1C(=O)C2CC=CCC2C1=O (configuration not stated),"inconclusive: 89.1 µM [inhibitor, single point]",–
COc1ccc(NC(=O)NS(=O)(=O)c2ccc(C)cc2)c(OC)c1,"inconclusive: 20 µM [inhibitor, single point]",–
CCOC(=O)N1CCN(C(=S)NC(=O)c2ccc(F)c(F)c2)CC1,active: 44.7 µM,–
Cc1occc(=O)c1OC(=O)Nc1ccc(Cl)c(Cl)c1,"inconclusive: 89.1 µM [inhibitor, single point]",–
O=c1c2ccccc2nc(-c2ccccc2)n1CCN1CCOCC1,"inconclusive: 8.91 µM [inhibitor, partial curve, poor fit]",–
Cc1ccc(OCc2nc(C#N)c(NCCCn3ccnc3)o2)cc1,"inconclusive: 44.7 µM [inhibitor, partial curve, poor fit]",–
COc1ccc(/C=C/c2nc3ccccc3n2C)cc1,inactive,–
Cc1cc(C)n(CC(=O)Nc2ccc(F)c(F)c2)c(=O)c1C#N,inactive,–
CC(=O)c1ccc(S(=O)(=O)Nc2ccc(N3CCOCC3)cc2)cc1,active: 28.2 µM,–
Cc1ccc(-c2[nH]nc3c2C(c2ccc(OC(=O)N4CCOCC4)cc2)C(C#N)=C(N)O3)cc1 (configuration not stated),"inconclusive: 8.91 µM [inhibitor, single point]",–
CC(=O)c1ccccc1NC(=O)COC(=O)c1ccccc1NC(=O)c1ccccc1,inactive,–
CCOC(=O)CCc1c(C)nc(SCCN2CCCC2)c(C#N)c1C,active: 39.8 µM,–
Cc1[nH]c(=O)c(C#N)c(C)c1CCC(=O)Nc1cc(S(C)(=O)=O)ccc1Cl,"inconclusive: 89.1 µM [inhibitor, single point]",–
COCCNC(=O)C1CCN(S(=O)(=O)c2c(C)noc2/C=C/c2cccs2)CC1,inactive,–
CCCc1cc(C(=O)Nc2ccc(OC)cc2[N+](=O)[O-])cs1,active: 14.1 µM,–
Cc1ccc(CNC(=O)C2c3ccccc3C(=O)N(C)C2c2c[nH]c3ccccc23)o1 (configuration not stated),"inconclusive: 22.4 µM [inhibitor, single point]",–
COc1ccc(N2CCN(c3ccc(Cl)nn3)CC2)cc1,"inconclusive: 56.2 µM [inhibitor, partial curve]",–

Compound,Potency,"activity, negative = inhibition"
CCN(CC)C(=O)C1=C(C)Nc2nc3ccccc3n2C1c1ccc(Br)cc1 (configuration not stated),inactive,–
CC(C)Oc1cccc(NC(=O)C2CCN(S(=O)(=O)Cc3ccccc3)CC2)c1,inactive,–
CCCNS(=O)(=O)c1ccc(CCC(=O)N2CCCCC2)cc1,–,inactive: 15.9% [at 12.7 µM]
Clc1ccc(OCCN2CCOCC2)cc1Cl,active: 12.6 µM,–
CC(C)C(=O)Nc1nc(-c2ccc3c(c2)CCN3C(=O)C2CC2)cs1,"inconclusive: 89.1 µM [inhibitor, single point]",–
COc1ccc(C(=O)N2CCc3cc(OC)c(OC)cc3C2c2cccc([N+](=O)[O-])c2)cc1OC (configuration not stated),–,inconclusive: -52.1% [inhibitor]
Cc1c(NC(=O)/C(C#N)=C/c2ccc(-c3ccc(Cl)cc3)o2)c(=O)n(-c2ccccc2)n1C,active: 20 µM,–
CCOc1ccccc1C1C(C#N)=C(N)Oc2cc(C)n(Cc3ccccn3)c(=O)c21 (configuration not stated),active: 50.1 µM,–
CCc1ccc(CNC(=O)c2ccc(CSc3nc4ccncc4n3Cc3ccc(OC)cc3)cc2)cc1,"inconclusive: 0.316 µM [inhibitor, partial curve, poor fit]",–
COc1ccc(NC(C)=O)cc1NC(C)C(=O)Nc1ccc(F)c(F)c1F (configuration not stated),active: 50.1 µM,–
COc1ccc(N2CCN(C(=O)Cc3coc4ccc(C)cc34)CC2)cc1,active: 15.8 µM,–
COC(=O)c1ccc(NCCc2csc(-c3ccc(C)cc3)n2)c([N+](=O)[O-])c1,inactive,–
O=C(Nc1ccc(N2CCOCC2)cc1)C1CC1,"inconclusive: 2.82 µM [inhibitor, partial curve, poor fit]",–
CC1CCC(NC(=O)Nc2cccs2)CC1 (configuration not stated),"inconclusive: 89.1 µM [inhibitor, single point]",–
O=C(CSc1nnc(COc2ccc(Cl)cc2)o1)Nc1ccccc1,"inconclusive: 25.1 µM [inhibitor, partial curve, poor fit]",–
COc1ccc(C2CC(=O)c3cnc(NC(=O)c4cc(OC)cc(OC)c4)nc3C2)cc1 (configuration not stated),"inconclusive: 89.1 µM [inhibitor, partial curve, poor fit]",–
COc1cc(C(=O)NCc2ccc3c(c2)cc(C)n3C)cc(OC)c1OC,"inconclusive: 50.1 µM [inhibitor, partial curve]",–
CSc1nc(C)c2c(c1C#N)CCCC2,"inconclusive: 0.708 µM [inhibitor, full curve, poor fit]",–
Nc1nc(-c2cc(O)ccc2[N+](=O)[O-])cc(-c2ccccc2)c1[N+](=O)[O-],"inconclusive: 89.1 µM [inhibitor, single point]",–
CC1CCCN(CCOCCOc2ccc(Cl)cc2Br)C1 (configuration not stated),"inconclusive: 10 µM [inhibitor, partial curve, poor fit]",–
COc1ccc(N2C(=O)C3C(C2=O)C(C(=O)c2ccc(Cl)cc2)N2CCCC32)cc1 (configuration not stated),"inconclusive: 31.6 µM [inhibitor, full curve, poor fit]",–
Cc1ccc2cc(COC(=O)c3cccc([N+](=O)[O-])c3)c(=O)[nH]c2c1,"inconclusive: 89.1 µM [inhibitor, single point]",–
Cc1ccc(CNc2oc(COc3ccccc3Cl)nc2C#N)cc1,"inconclusive: 70.8 µM [inhibitor, single point]",–
CCC(CC)C(=O)Nc1nnc(SCC(=O)N2CCN(c3ccccc3OC)CC2)s1,"inconclusive: 89.1 µM [inhibitor, partial curve, poor fit]",–
